This is one part of the list.
Legend:
Assay in all cases: glycan array binding signal (z-score within array); higher = stronger binding
Conditions in all cases: glycan notation: IUPAC condensed, linker removed
[1] = biological target: Gal(b1-3)GlcNAc(b1-6)GalNAc
Outline: (§1)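 From the Consortium for Functional Glycomics database, 3228 arrays were curated, keeping only those whose protein sequence was available. Binding is given as a within-array Z-score averaged across arrays sharing a protein sequence and across linkers. Negative Z-scores can be read as non-binding.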

[2] = biological target: Gal(b1-3)GlcNAc(b1-6)[Gal(b1-3)]GalNAc
Outline: as §1

[3] = biological target: Gal(b1-3)GlcNAc6S
Outline: as §1

[4] = biological target: Gal(b1-3)[Fuc(a1-4)]GlcNAc
Outline: as §1

[5] = biological target: Gal(b1-3)[Fuc(a1-4)]GlcNAc(b1-2)Man
Outline: as §1

[6] = biological target: Gal(b1-3)[Fuc(a1-4)]GlcNAc(b1-2)Man(a1-3)[Gal(b1-3)[Fuc(a1-4)]GlcNAc(b1-2)Man(a1-6)]Man(b1-4)GlcNAc(b1-4)[Fuc(a1-6)]GlcNAc
Outline: as §1

[7] = biological target: Gal(b1-3)[Fuc(a1-4)]GlcNAc(b1-3)Gal(b1-3)[Fuc(a1-4)]GlcNAc
Outline: as §1

[8] = biological target: Gal(b1-3)[Fuc(a1-4)]GlcNAc(b1-3)Gal(b1-4)[Fuc(a1-3)]GlcNAc
Outline: as §1

[9] = biological target: Gal(b1-3)[Fuc(a1-4)]GlcNAc(b1-6)GalNAc
Outline: as §1

[10] = biological target: Gal(b1-3)[GlcNAc(b1-6)]GalNAc
Outline: as §1

[11] = biological target: Gal(b1-3)[Neu5Ac(a2-6)]GalNAc
Outline: as §1

[12] = biological target: Gal(b1-3)[Neu5Ac(a2-6)]GlcNAc(b1-4)Gal(b1-4)Glc
Outline: as §1

[13] = biological target: Gal(b1-3)[Neu5Ac(b2-6)]GalNAc
Outline: as §1

[14] = biological target: Gal(b1-4)Gal
Outline: as §1

[15] = biological target: Gal(b1-4)GalNAc(a1-3)[Fuc(a1-2)]Gal(b1-4)GlcNAc
Outline: as §1

[16] = biological target: Gal(b1-4)GalNAc(b1-3)[Fuc(a1-2)]Gal(b1-4)GlcNAc
Outline: as §1

[17] = biological target: Gal(b1-4)Glc
Outline: as §1

[18] = biological target: Gal(b1-4)Glc6S
Outline: as §1

[19] = biological target: Gal(b1-4)GlcNAc
Outline: as §1

[20] = biological target: Gal(b1-4)GlcNAc(a1-6)Gal(b1-4)GlcNAc
Outline: as §1

[21] = biological target: Gal(b1-4)GlcNAc(b1-2)Man
Outline: as §1

[22] = biological target: Gal(b1-4)GlcNAc(b1-2)Man(a1-3)Man(b1-4)GlcNAc(b1-4)GlcNAc
Outline: as §1

[23] = biological target: Gal(b1-4)GlcNAc(b1-2)Man(a1-3)[Gal(b1-4)GlcNAc(b1-2)Man(a1-6)]Man(b1-4)GlcNAc(b1-4)GlcNAc
Outline: as §1

[24] = biological target: Gal(b1-4)GlcNAc(b1-2)Man(a1-3)[Gal(b1-4)GlcNAc(b1-2)Man(a1-6)]Man(b1-4)GlcNAc(b1-4)[Fuc(a1-6)]GlcNAc
Outline: as §1

[25] = biological target: Gal(b1-4)GlcNAc(b1-2)Man(a1-3)[Gal(b1-4)GlcNAc(b1-2)Man(a1-6)][Gal(b1-4)GlcNAc(b1-4)]Man(b1-4)GlcNAc(b1-4)[Fuc(a1-6)]GlcNAc
Outline: as §1

[26] = biological target: Gal(b1-4)GlcNAc(b1-2)Man(a1-3)[Gal(b1-4)GlcNAc(b1-2)Man(a1-6)][GlcNAc(b1-4)]Man(b1-4)GlcNAc(b1-4)[Fuc(a1-6)]GlcNAc
Outline: as §1

[27] = biological target: Gal(b1-4)GlcNAc(b1-2)Man(a1-3)[GlcNAc(b1-2)Man(a1-6)]Man(b1-4)GlcNAc(b1-4)GlcNAc
Outline: as §1

[28] = biological target: Gal(b1-4)GlcNAc(b1-2)Man(a1-3)[GlcNAc(b1-4)][Gal(b1-4)GlcNAc(b1-2)Man(a1-6)]Man(b1-4)GlcNAc(b1-4)GlcNAc
Outline: as §1

[29] = biological target: Gal(b1-4)GlcNAc(b1-2)Man(a1-3)[Man(a1-6)]Man(b1-4)GlcNAc(b1-4)GlcNAc
Outline: as §1

[30] = biological target: Gal(b1-4)GlcNAc(b1-2)Man(a1-6)Man(b1-4)GlcNAc(b1-4)GlcNAc
Outline: as §1

[31] = biological target: Gal(b1-4)GlcNAc(b1-2)Man(a1-6)[GlcNAc(b1-2)Man(a1-3)]Man(b1-4)GlcNAc(b1-4)GlcNAc
Outline: as §1

[32] = biological target: Gal(b1-4)GlcNAc(b1-2)Man(a1-6)[Man(a1-3)]Man(b1-4)GlcNAc(b1-4)GlcNAc
Outline: as §1

[33] = biological target: Gal(b1-4)GlcNAc(b1-2)[Gal(b1-4)GlcNAc(b1-4)]Man(a1-3)[Gal(b1-4)GlcNAc(b1-2)Man(a1-6)]Man(b1-4)GlcNAc(b1-4)GlcNAc
Outline: as §1

[34] = biological target: Gal(b1-4)GlcNAc(b1-2)[Gal(b1-4)GlcNAc(b1-4)]Man(a1-3)[Gal(b1-4)GlcNAc(b1-2)[Gal(b1-4)GlcNAc(b1-6)]Man(a1-6)]Man(b1-4)GlcNAc(b1-4)GlcNAc
Outline: as §1

[35] = biological target: Gal(b1-4)GlcNAc(b1-2)[Gal(b1-4)GlcNAc(b1-4)]Man(a1-3)[GlcNAc(b1-4)][Gal(b1-4)GlcNAc(b1-2)Man(a1-6)]Man(b1-4)GlcNAc(b1-4)GlcNAc
Outline: as §1

[36] = biological target: Gal(b1-4)GlcNAc(b1-2)[Gal(b1-4)GlcNAc(b1-4)]Man(a1-3)[GlcNAc(b1-4)][Gal(b1-4)GlcNAc(b1-2)[Gal(b1-4)GlcNAc(b1-6)]Man(a1-6)]Man(b1-4)GlcNAc(b1-4)GlcNAc
Outline: as §1

[37] = biological target: Gal(b1-4)GlcNAc(b1-2)[Gal(b1-4)GlcNAc(b1-6)]Man(a1-6)[Gal(b1-4)GlcNAc(b1-2)Man(a1-3)]Man(b1-4)GlcNAc(b1-4)GlcNAc
Outline: as §1

B1: SSP1 (Sclerotinia sclerotiorum), XP_001584968 (protein)
chain: MGSSHHHHHHSSGLVPRGSHMSLLTTELACTSAPDQVLHLFFQDGQNILEARSPDGGNVWTTQDTIIAKDGDYNGSSMTCYYVDKDANFDNQPSIHLLYMNKDKQLTEKVKRMKGDNPIWEDAKVPDEVRKGPEQYSKLTSGSFNQGTGWNPNGSQWAYFSASKDGKMGIVEIRRTPKDPWHTETILEEKWGDELPGTALACVIGNGKIRVFLQHHDYSIILYENQNNTWHDRGTFIPKDKVQATTPLACTMTKDGSVHLFYVSKSNKIIHCTDGKKEEELINFFPGSKLGATSVENKITLFFRNLNPVNEVGTLENENGSWKHGTTVIPA
glycan array binding signal (z-score) [1]: -0.244
glycan array binding signal (z-score) [2]: -0.309
glycan array binding signal (z-score) [3]: 0.261
glycan array binding signal (z-score) [4]: -0.31
glycan array binding signal (z-score) [5]: -0.358
glycan array binding signal (z-score) [6]: -0.08
glycan array binding signal (z-score) [7]: -0.061
glycan array binding signal (z-score) [8]: -0.417
glycan array binding signal (z-score) [9]: 0.053
glycan array binding signal (z-score) [10]: -0.142
glycan array binding signal (z-score) [11]: -0.504
glycan array binding signal (z-score) [12]: -0.303
glycan array binding signal (z-score) [13]: -0.441
glycan array binding signal (z-score) [14]: -0.262
glycan array binding signal (z-score) [15]: -0.662
glycan array binding signal (z-score) [16]: -0.139
glycan array binding signal (z-score) [17]: -0.078
glycan array binding signal (z-score) [18]: -0.189
glycan array binding signal (z-score) [19]: -0.446
glycan array binding signal (z-score) [20]: -0.499
glycan array binding signal (z-score) [21]: 0.011
glycan array binding signal (z-score) [22]: 0.145
glycan array binding signal (z-score) [23]: -0.294
glycan array binding signal (z-score) [24]: 0.031
glycan array binding signal (z-score) [25]: 0.224
glycan array binding signal (z-score) [26]: -0.567
glycan array binding signal (z-score) [27]: -0.595
glycan array binding signal (z-score) [28]: -0.649
glycan array binding signal (z-score) [29]: -0.64
glycan array binding signal (z-score) [30]: -0.14
glycan array binding signal (z-score) [31]: 0.357
glycan array binding signal (z-score) [32]: -0.48
glycan array binding signal (z-score) [33]: -0.248
glycan array binding signal (z-score) [34]: -0.276
glycan array binding signal (z-score) [35]: -0.023
glycan array binding signal (z-score) [36]: 0.427
glycan array binding signal (z-score) [37]: 0.079
